Laboratory results published in publication PMC6919601, “Identification of Plasmodium dipeptidyl aminopeptidase allosteric inhibitors by high throughput screening” (PLoS ONE, 2019).
About 230 (0.21%) of roughly 110,000 compounds showed an effect of 50% or more. Some of the results follow.

These compounds were tested against DPAP1 (Plasmodium falciparum, UniProt Q8IIJ9) (assay: primary screen, percent inhibition; read by cleavage of a fluorogenic dipeptide substrate; higher = more effect of the substance).
Set-up: species or system P. falciparum D10 trophozoite lysates; single well
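Also: 30 min substrate incubation versus DMSO and 10 µM JCP410 controls.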

Sequence of DPAP1 (Q8IIJ9 whole entry, looked up): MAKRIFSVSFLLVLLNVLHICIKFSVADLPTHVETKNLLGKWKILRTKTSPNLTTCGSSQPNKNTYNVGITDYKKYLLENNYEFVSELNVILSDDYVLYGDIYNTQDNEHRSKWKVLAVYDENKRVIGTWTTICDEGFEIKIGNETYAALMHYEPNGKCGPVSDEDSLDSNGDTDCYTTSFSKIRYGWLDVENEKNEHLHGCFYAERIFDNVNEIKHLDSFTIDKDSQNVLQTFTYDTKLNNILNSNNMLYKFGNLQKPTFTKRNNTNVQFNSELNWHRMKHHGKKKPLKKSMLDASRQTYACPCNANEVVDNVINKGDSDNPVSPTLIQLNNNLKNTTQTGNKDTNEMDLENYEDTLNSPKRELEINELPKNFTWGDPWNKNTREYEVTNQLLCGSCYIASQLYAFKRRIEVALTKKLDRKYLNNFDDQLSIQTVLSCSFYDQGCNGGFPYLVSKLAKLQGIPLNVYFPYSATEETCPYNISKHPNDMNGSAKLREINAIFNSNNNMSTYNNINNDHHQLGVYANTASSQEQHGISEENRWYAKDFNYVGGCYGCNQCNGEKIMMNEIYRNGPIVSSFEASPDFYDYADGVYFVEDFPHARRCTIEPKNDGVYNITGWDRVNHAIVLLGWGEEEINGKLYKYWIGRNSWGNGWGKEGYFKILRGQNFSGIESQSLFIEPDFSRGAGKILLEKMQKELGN

SMILES	% Inhibition @ 10 uM [%]
N#Cc1cc(-c2ccccc2)c(Cc2ccccc2)nc1S	-3.16
CN(C)c1ccnc2sc3c(SCc4ccc(Cl)cc4)ncnc3c12	2.6
CCOc1ccc(C=C2C(=O)NC(=O)NC2=O)cc1OC	-0.615
COc1cccc(OC)c1C(=O)Nc1ccccc1Cl	0.361
Cc1cnc(NC(=O)C23CC4CC(C2)CC(n2cnc(Br)n2)(C4)C3)s1	-3.05
O=C(Cc1ccccc1)Nc1ccc2oc(-c3ccccc3F)nc2c1	0.52
Cc1c(N)cc(C(=O)O)cc1[N+](=O)[O-]	-2.41
CN1CCC(N(C)Cc2ccc3ccccc3c2)CC1	0.847
N#C/C(=C\c1cccc(Br)c1)c1nn(CCO)c(N)c1C#N	13.2
O=C1N/C(=C/c2cccn2-c2ccc(F)cc2)C(=O)N1Cc1ccccc1	0.161
COc1ccc(CCn2c(=O)c(C#N)cc3c(=O)n4cc(C)ccc4nc32)cc1OC	-0.551
CC1=Nc2ncnn2C(c2cccc(O)c2)/C1=C(/O)OCc1ccccc1 (stereo not shown)	-4.93
Cc1cc(NC(=O)CSc2nnc(-c3ccc4c(c3)OCCO4)o2)no1	9.59
O=C(Cn1ncc2c1-c1ccccc1OC2)Nc1cc(-c2cccc(Cl)c2)no1	-6.07
CCCc1nc(SC)ncc1C(=O)O	-5.12
O=C(N/C(=C/c1ccc(Cl)cc1)c1nc2ccccc2[nH]1)c1ccccc1	0.0538
CC(=O)Nc1cc(C(=O)O)ccc1NCc1ccccc1	-4.02
O=C(Cn1ncn2nc(-c3cccs3)cc2c1=O)NCc1ccccn1	-1.08
O=C(O)CCCCCNc1nc(-c2ccccc2)nc2ccccc12	-6.59
O=C1/C(=C/c2cccnc2)S/C(=N/Cc2ccccc2)N1Cc1ccccc1	-0.339
Nc1nc(C23CC4CC(CC(C4)C2)C3)cs1	-3.55
COc1cc(C2CC(=O)NC3=C2C(=O)CC(c2ccccc2Cl)C3)c(OC)cc1Br (stereo not shown)	-3.51

SMILES	% Inhibition @ 10 uM [%]
CCOC(=O)C1CCCN(Cc2ccc(Cl)c(Cl)c2)C1 (stereo not shown)	-0.127
CC(C)(C)c1ccc(C(=O)N2CCC(C(=O)Nc3c(F)cccc3F)CC2)cc1	0.931
Nc1nonc1-c1nc2ccccc2n1CC(=O)NCc1ccco1	-1.11
c1ccc2oc(Cc3nc4ccccc4o3)nc2c1	1.08
CN(C)/C=N/c1c(C#N)cnn1-c1ccccc1	-2.53
CN(C(=O)c1ccccc1Cl)C1(C(=O)NC2CCCC2)CCCCC1	-9.7
CCCOc1cc(C)cc2oc(=O)cc(-c3ccccc3)c12	-0.339
O=C(CN1N=C(c2ccc(Cl)cc2)CCC1=O)NCCC1=CCCCC1	3.79
CCc1ccc(OC(C)C(=O)N(Cc2ccccc2F)C2CCS(=O)(=O)C2)cc1 (stereo not shown)	0.366
COc1ccc2[nH]c3c(=O)n(CCC(=O)NC4CCC(C)CC4)c(=S)[nH]c3c2c1 (stereo not shown)	-3.95
COc1ccc(SCCc2ccc(C)nc2)cc1	-1.76
CCCC1CCc2c(n(C)c3ccccc3c2=O)O1 (stereo not shown)	-7.62
Cc1ccc(NC(=O)CN2CCOCC2)cc1	-4.6
N#Cc1c(N)nc2c(c1-c1ccccc1)CCCCC2	-2.55
CC(C)(C)c1cc(Cc2ccccc2)[nH]n1	3.44
Cc1ccc2c(c1)cc1c(=O)n(Cc3ccccc3C)nc(C)n12	-2
COc1ccc2nc(CC(C)(C)CC(=O)O)c[n+]([O-])c2c1	5.45
O=C(Nc1ccc(Cl)cc1)C1CC(=O)N(c2ccc(Oc3ccccc3)cc2)C1 (stereo not shown)	-3.85
COc1cc(C2C3=C(CC(C)(C)CC3=O)OC3=C2C(=O)CC(C)(C)C3)cc(OC)c1O	7.62
O=C(Nc1cccc(-c2nc3ccccc3s2)c1)c1ccc(F)c(F)c1	-2.81
COc1ccc(C2C3=C(CC(C)(C)CC3=O)N(CC(=O)O)C3=C2C(=O)CC(C)(C)C3)cc1Cl	0.214
CSc1cc(N2CCOCC2)nc(-c2ccccc2Cl)n1	4.03

SMILES	% Inhibition @ 10 uM [%]
CCCc1ccc(OCc2ccc(C(=O)N3CCN(c4ccccn4)CC3)o2)c(OC)c1	3.72
COc1cc(SC)ccc1C(=O)N1CCN(c2ccccc2)CC1	0.983
CCOc1ccc(-c2cc(N)n(S(=O)(=O)c3cccc4nsnc34)n2)cc1	7.21
CC1(C)CC(=O)C(/C=N/c2ccc3c(c2)CCC3)=C(O)C1	-1.64
Cc1cc(-c2n[nH]c3c2C(C(C)c2ccccc2)C(C#N)=C(N)O3)c(C)s1 (stereo not shown)	-2.24
Clc1cccc(N2CCN(Cc3ccc(Br)cc3)CC2)c1	-5.5
O=C(Nc1ccc(Cl)cc1)c1cc(Br)cc(Br)c1O	4.88
Cc1ccc(-c2cc(C(C)(C)C)nc(N)c2C#N)cc1	2.65
COCCNC(=O)c1ccc2c(c1)nc(C)n2-c1ccc(F)cc1F	-0.458
CCN1CCN(C2CCC(C(C)(C)C)CC2)CC1 (stereo not shown)	1.08
Cc1nnc(N2CCC(C(=O)NC(C)c3ccccc3)CC2)c2nn(-c3ccccc3)c(C)c12 (stereo not shown)	-3.24
COc1cc(C2c3c(-c4c(C)cc(C)cc4O)n[nH]c3C(=O)N2Cc2ccco2)ccc1O (stereo not shown)	-3.49
CC(=O)c1ccc(NC(=O)Cn2nnc3ccccc32)cc1	0.989
C/C(=N/N=C\c1cccc2ccccc12)c1nnn(-c2nonc2N)c1C	4.42
Cc1c(Br)c(C(F)(F)F)nn1CC(=O)Nc1sc2c(c1C(N)=O)CCCC2	-3.13
O=C(CSc1nc(-c2cccs2)cc(C(F)(F)F)n1)NCc1cccnc1	3.04
CCOc1cc(C(=O)N2CCCC2)cc(OCC)c1OCC	-1.89
CCOc1ccccc1N1CCN(C(=O)c2ccccc2Br)CC1	3.32
Cc1nc2scc(C)n2c(=O)c1S(=O)(=O)NC1CCN(Cc2ccccc2)CC1	-3.32
CCc1nnc(NC(=O)CSc2nc(-c3cccs3)nc3c2c(=O)n(C)c(=O)n3C)s1	2.34
